The full ranking holds about 33,000 sequences; the median of “E-score (-0.5 to 0.5)” is about -0.01, and the highest 2% start at about 0.26. The list shows a part of the results.
These sequences were tested against Ste12 (UniProt P13574) (assay: PBM E-score (8-mer binding enrichment) (E-score (-0.5 to 0.5)); higher = stronger / more preferred TF binding; most listed sequences are background and not binding sites). Conditions: protein concentration: 200 nM; construct: GST-DNA-binding domain.
Experimental: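 Universal 'all 10-mer' protein binding microarrays (Agilent AMADID 015681) probed with GST-tagged S. cerevisiae TFs (full-length or DBD) made by in vitro transcription/translation (PURExpress), about 100-200 nM. Bound TF was detected with fluorescent anti-GST. Each ungapped 8-mer (which stands for itself and its reverse complement) is scored by the PBM enrichment score (E-score), a modified Wilcoxon-Mann-Whitney statistic from -0.5 to +0.5, computed with the Universal PBM Analysis Suite. Scale: above 0.35 generally sequence-specific binding.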
In the case of AATATCAA, the “PBM E-score” value is reported as 0.283.
For CGGTAGAC, the “PBM E-score” value was 0.00936.
In the case of AATTGCGA, the “PBM E-score” value is reported as 0.073.
In the case of AACGTCCT, the “PBM E-score” value is reported as 0.00651.
With AGACAAGA the “PBM E-score” value was 0.0955.
For TAACACAA, the “PBM E-score” value was 0.124.
With ACAACGCT the “PBM E-score” value was 0.0428.
With AGTAGGTA the “PBM E-score” value was -0.155.
In the case of CTTTCGCC, the “PBM E-score” value is reported as -0.244.
With GAACACTC the “PBM E-score” value was 0.112.
For CCGCCTAA, the “PBM E-score” value was -0.0574.
GCTGCCGA was tested, and the “PBM E-score” value was -0.056.
For GTACTCTA, the “PBM E-score” value was -0.0825.
ATAAGGTA was tested, and the “PBM E-score” value was 0.0828.
TCCTTCGA was tested, and the “PBM E-score” value was 0.0182.
GATCGAAA was tested, and the “PBM E-score” value was 0.0588.
GAAGATTC was tested, and the “PBM E-score” value was -0.0646.
In the case of AAGAGTTC, the “PBM E-score” value is reported as -0.105.
GAAAGTTC was tested, and the “PBM E-score” value was -0.216.
With GATTTCCC the “PBM E-score” value was -0.0998.
With CGGCTAAC the “PBM E-score” value was -0.0941.
With ATTAGGAA the “PBM E-score” value was 0.087.
In the case of AACGTTAA, the “PBM E-score” value is reported as 0.116.
With AGCGGACT the “PBM E-score” value was -0.233.
In the case of ATACTAGC, the “PBM E-score” value is reported as 0.0647.
In the case of GATGACTA, the “PBM E-score” value is reported as -0.0558.
In the case of CAATGTAC, the “PBM E-score” value is reported as -0.0352.
For GGATCAAC, the “PBM E-score” value was 0.0276.
In the case of CCGGCCAG, the “PBM E-score” value is reported as -0.107.
In the case of GAATGTAC, the “PBM E-score” value is reported as -0.0391.
CCCCATTA was tested, and the “PBM E-score” value was -0.193.
For ATTTACAC, the “PBM E-score” value was 0.18.
In the case of CTGTAATA, the “PBM E-score” value is reported as 0.119.
For ATAAAAAT, the “PBM E-score” value was 0.241.
CCCGGGGA was tested, and the “PBM E-score” value was -0.0979.
With CTCGAGCC the “PBM E-score” value was -0.0728.
AAGAACGC was tested, and the “PBM E-score” value was -0.029.
In the case of ATTGGTTG, the “PBM E-score” value is reported as 0.146.
With AGATCTTC the “PBM E-score” value was -0.0434.
With GATAGAAC the “PBM E-score” value was 0.0461.
For ATTGCTGA, the “PBM E-score” value was -0.0194.
In the case of ATCCGGAC, the “PBM E-score” value is reported as -0.114.
For TCAGTAGA, the “PBM E-score” value was -0.0042.
With AAGTACAT the “PBM E-score” value was 0.0101.
GGAATGAA was tested, and the “PBM E-score” value was 0.281.
With ACTGCCCC the “PBM E-score” value was -0.231.
In the case of AAGTTCGC, the “PBM E-score” value is reported as -0.125.
With CTAGGAAG the “PBM E-score” value was -0.167.
For TCCTGTCA, the “PBM E-score” value was 0.00402.
AATTCCCC was tested, and the “PBM E-score” value was 0.0771.
For CGTGGTTC, the “PBM E-score” value was -0.0453.
CACCCGTG was tested, and the “PBM E-score” value was 0.0289.
With GTCTATTA the “PBM E-score” value was -0.0569.
With CTTTAGAC the “PBM E-score” value was 0.0447.
With CCGGCATA the “PBM E-score” value was 0.0364.
For CGTCTAAA, the “PBM E-score” value was 0.145.
With GCTCGGCA the “PBM E-score” value was -0.0255.
CTGAGTAC was tested, and the “PBM E-score” value was -0.0979.
GGTGCGAC was tested, and the “PBM E-score” value was 0.0544.
For CAATCTAC, the “PBM E-score” value was -0.0868.
GCTCAATA was tested, and the “PBM E-score” value was 0.0645.
With CCAGATAC the “PBM E-score” value was -0.101.
In the case of GCATTATA, the “PBM E-score” value is reported as 0.00339.
With ATAAATAG the “PBM E-score” value was 0.0906.
CTGCAGAC was tested, and the “PBM E-score” value was -0.00217.
For CAGAATAA, the “PBM E-score” value was 0.065.
With AGGCCTAG the “PBM E-score” value was -0.218.
With AGTTCAAA the “PBM E-score” value was 0.138.
AACCCTAT was tested, and the “PBM E-score” value was -0.00689.
With GAAAATCC the “PBM E-score” value was 0.0273.
For ACGAGATA, the “PBM E-score” value was -0.0993.
AAGGACCC was tested, and the “PBM E-score” value was -0.122.
In the case of AAGACCCT, the “PBM E-score” value is reported as -0.161.
For GCGCACGA, the “PBM E-score” value was 0.115.
With GGATATCA the “PBM E-score” value was -0.017.
For GTATGGAC, the “PBM E-score” value was -0.0968.
In the case of CACTGCGG, the “PBM E-score” value is reported as 0.0551.
CAGAGGCC was tested, and the “PBM E-score” value was -0.155.
TCTCCACA was tested, and the “PBM E-score” value was -0.0304.
In the case of AACAATGC, the “PBM E-score” value is reported as 0.0822.
TTATAAAA was tested, and the “PBM E-score” value was 0.268.
With GAACTGTC the “PBM E-score” value was 0.00291.
In the case of ACTCGCAG, the “PBM E-score” value is reported as -0.0659.
In the case of CCTCAGCA, the “PBM E-score” value is reported as -0.0731.
For GAGAGGAC, the “PBM E-score” value was -0.11.
For AGGCGATG, the “PBM E-score” value was -0.0741.
In the case of CGAACTCG, the “PBM E-score” value is reported as 0.00586.
For CCTTAGAG, the “PBM E-score” value was -0.259.
In the case of CCGTCGTA, the “PBM E-score” value is reported as 0.012.
For CCGTAATC, the “PBM E-score” value was -0.24.
In the case of CACTTGGC, the “PBM E-score” value is reported as -0.0811.
With CCTATTCA the “PBM E-score” value was -0.0308.
For AACTCCCC, the “PBM E-score” value was -0.0986.
With TCTACTCA the “PBM E-score” value was 0.0258.
In the case of TATTATAA, the “PBM E-score” value is reported as 0.237.
With AGATGTCA the “PBM E-score” value was 0.147.
For ACGTACAC, the “PBM E-score” value was -0.0358.
With AGCCTCGG the “PBM E-score” value was -0.0249.
ACGCGCGT was tested, and the “PBM E-score” value was 0.00813.
With AAAGGGCT the “PBM E-score” value was -0.18.
With CGTACACC the “PBM E-score” value was -0.082.
For GCCCCGAC, the “PBM E-score” value was -0.135.
With ACGGAGTA the “PBM E-score” value was -0.0529.
For AGACATTG, the “PBM E-score” value was 0.0408.
With TACTGAAA the “PBM E-score” value was 0.358.
With GGCTAAGA the “PBM E-score” value was -0.148.
In the case of AGCGCCGG, the “PBM E-score” value is reported as 0.0998.
In the case of AACCAGTT, the “PBM E-score” value is reported as 0.227.
In the case of CAGGCTCA, the “PBM E-score” value is reported as -0.119.
GGTGATCA was tested, and the “PBM E-score” value was -0.0395.
For GGTTATGA, the “PBM E-score” value was 0.0703.
In the case of AAGCTCCC, the “PBM E-score” value is reported as -0.24.
In the case of ACTTCAAT, the “PBM E-score” value is reported as 0.174.
ATTGTTGC was tested, and the “PBM E-score” value was 0.0247.
For AGTCCAAA, the “PBM E-score” value was -0.0498.
For ATTCCCTA, the “PBM E-score” value was 0.0512.
In the case of AAGCGCCA, the “PBM E-score” value is reported as -0.163.
With CCTTTTCA the “PBM E-score” value was -0.0167.
For CTGGCGTC, the “PBM E-score” value was -0.16.
In the case of CACCCGAC, the “PBM E-score” value is reported as 0.0001.
In the case of ATGTCGGC, the “PBM E-score” value is reported as -0.103.
In the case of TACCAAGA, the “PBM E-score” value is reported as 0.122.
In the case of CCCCAGCA, the “PBM E-score” value is reported as -0.0486.
With GCAGTTGA the “PBM E-score” value was 0.0135.
AACTGCCC was tested, and the “PBM E-score” value was -0.0633.
For ACAGTTTC, the “PBM E-score” value was 0.225.
With AGGCCACT the “PBM E-score” value was -0.19.
In the case of TCGCAGAA, the “PBM E-score” value is reported as -0.146.
In the case of AATAGTCT, the “PBM E-score” value is reported as 0.0863.
For TACACCAA, the “PBM E-score” value was 0.116.
In the case of CCACAGGA, the “PBM E-score” value is reported as -0.0278.
With AAGAGCCC the “PBM E-score” value was -0.0789.
For CCAAAACG, the “PBM E-score” value was 0.254.
For GAATCTCA, the “PBM E-score” value was -0.0946.
In the case of CTCAGATC, the “PBM E-score” value is reported as 0.0449.
With GAAGGTAA the “PBM E-score” value was 0.176.
GGATTTAC was tested, and the “PBM E-score” value was 0.00441.
With CCCCACGG the “PBM E-score” value was -0.0597.
ACGTGCGG was tested, and the “PBM E-score” value was -0.0466.
CTCTTCTA was tested, and the “PBM E-score” value was -0.143.
In the case of ATATCCTA, the “PBM E-score” value is reported as -0.0384.
For GAGAAGGA, the “PBM E-score” value was -0.169.
CACTATAG was tested, and the “PBM E-score” value was -0.096.
In the case of AAAATGGG, the “PBM E-score” value is reported as -0.033.
In the case of CACATTAC, the “PBM E-score” value is reported as 0.012.
In the case of AGCTCGGC, the “PBM E-score” value is reported as -0.139.
With AGCCACTA the “PBM E-score” value was -0.0478.
CGGTCATC was tested, and the “PBM E-score” value was -0.164.
GCTACATA was tested, and the “PBM E-score” value was -0.0491.
For CCACGACC, the “PBM E-score” value was -0.274.
For AGCTACTC, the “PBM E-score” value was -0.135.
CTCAGACA was tested, and the “PBM E-score” value was 0.2.
With AATCATTG the “PBM E-score” value was -0.0499.
For TGTGGGAA, the “PBM E-score” value was -0.0148.
In the case of CCGACCTC, the “PBM E-score” value is reported as -0.183.
With GGCGTCGA the “PBM E-score” value was -0.0578.
With ATACGCAC the “PBM E-score” value was 0.0718.
With ATCGTCCA the “PBM E-score” value was -0.165.
For AGCCTGAT, the “PBM E-score” value was -0.252.
AAGAACTG was tested, and the “PBM E-score” value was -0.0269.
In the case of ACTAATGC, the “PBM E-score” value is reported as -0.0606.
For ACGCCGTC, the “PBM E-score” value was -0.0605.
For CGCTACAA, the “PBM E-score” value was 0.0542.
GTCAATAA was tested, and the “PBM E-score” value was -0.0185.
TATGATGA was tested, and the “PBM E-score” value was 0.131.
For ACCTTATG, the “PBM E-score” value was 0.0329.
In the case of CAACTCTA, the “PBM E-score” value is reported as 0.0135.
For CGGAGATC, the “PBM E-score” value was -0.029.
With AAGCGATA the “PBM E-score” value was 0.00609.
For AATGCTAG, the “PBM E-score” value was -0.181.
AGTTCGCC was tested, and the “PBM E-score” value was 0.0369.
For ATGTGGCA, the “PBM E-score” value was -0.065.

— the supplement of paper PMC3334620
